Data reported in PMC6919601, “Identification of Plasmodium dipeptidyl aminopeptidase allosteric inhibitors by high throughput screening” (PLoS ONE, 2019).
About 230 (0.21%) of roughly 110,000 compounds showed an effect of 50% or more. The list shows a part of the results.

target: DPAP1 (Plasmodium falciparum, UniProt Q8IIJ9); assay: primary screen, percent inhibition; read by cleavage of a fluorogenic dipeptide substrate; higher = more effect of the substance; set-up: species or system P. falciparum D10 trophozoite lysates; single well
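Note: 30 min substrate incubation versus DMSO and 10 µM JCP410 controls.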

DPAP1, sequence (Q8IIJ9 whole entry, looked up): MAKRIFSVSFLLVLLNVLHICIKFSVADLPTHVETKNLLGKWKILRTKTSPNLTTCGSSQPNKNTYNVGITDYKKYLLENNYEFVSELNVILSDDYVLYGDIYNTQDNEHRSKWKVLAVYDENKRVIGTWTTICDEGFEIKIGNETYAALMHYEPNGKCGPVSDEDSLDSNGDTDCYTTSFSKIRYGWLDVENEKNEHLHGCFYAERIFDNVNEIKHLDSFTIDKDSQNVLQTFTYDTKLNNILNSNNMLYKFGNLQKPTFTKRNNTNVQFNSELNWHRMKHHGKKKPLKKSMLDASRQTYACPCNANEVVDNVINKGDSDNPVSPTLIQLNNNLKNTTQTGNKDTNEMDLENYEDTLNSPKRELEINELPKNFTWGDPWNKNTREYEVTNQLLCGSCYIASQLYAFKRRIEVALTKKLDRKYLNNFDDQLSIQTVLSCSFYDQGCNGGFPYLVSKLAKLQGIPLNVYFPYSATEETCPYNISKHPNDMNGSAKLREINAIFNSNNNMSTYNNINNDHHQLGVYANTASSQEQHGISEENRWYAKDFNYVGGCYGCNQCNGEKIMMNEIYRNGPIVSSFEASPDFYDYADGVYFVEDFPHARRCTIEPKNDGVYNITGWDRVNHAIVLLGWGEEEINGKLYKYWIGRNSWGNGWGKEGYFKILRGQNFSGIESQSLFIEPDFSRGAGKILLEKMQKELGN

| Compound | % Inhibition @ 10 uM [%] |
| --- | --- |
| CCOc1ccc(-c2nc(CSCC(=O)N3CCN(C(=O)c4ccco4)CC3)c(C)o2)cc1 | 0.51 |
| Cc1nnc(SCC(=O)N2CCC(C(N)=O)CC2)c2nn(-c3ccccc3)c(C)c12 | 5.5 |
| Cc1ccc(C)n1CCc1c[nH]c2ccccc12 | 9.35 |
| COc1ccc(CC(=O)Nc2ccc(S(=O)(=O)N(C)Cc3ccccc3)cc2)cc1 | 3.17 |
| CC1=C(C(=O)NCc2cccc(Cl)c2)C2(CCC(C)CC2)OC1=O (stereo not shown) | -5.58 |
| O=S(=O)(Nc1ccccc1Cl)c1ccccc1 | -1.86 |
| O=C1c2ccccc2C(=O)N1c1nc2nc(-c3ccccc3)cc(O)n2n1 | -0.0735 |
| c1ccc(-c2ccc(-c3nc(-c4ccccc4)no3)cc2)cc1 | -1.99 |
| COc1cc(NC(=O)c2ccc3c(c2)C(=O)N(Cc2cccnc2)C3=O)c(C(=O)O)cc1OC | -0.185 |
| O=C(O)CN(CC(=O)O)Cc1cc(O)ccc1O | 0.989 |
| Cc1ccc(C2=NN(CC(=O)NCCCN3CCC(Cc4ccccc4)CC3)C(=O)CC2)cc1 | -4.83 |
| O=C1NC(=S)S/C1=C\c1ccc(-c2ccccc2C(=O)O)o1 | 5.8 |
| COc1cc(OC)cc(C(=O)NC2CCCCC2)c1 | 2.48 |
| O=C(NCc1cccnc1)c1cccc2c1C(=O)N(C1CCCCC1)C2 | -0.499 |
| COc1ccc(-c2noc(N3CCC(C(=O)NC4CCCCC4C)CC3)n2)cc1 (stereo not shown) | 5.8 |
| Cc1cc(C)c(NS(=O)(=O)c2ccc3c(c2)OCCO3)c(C)c1 | -1.99 |
| CCC1=Nc2ncnn2C(c2cc(OC)c(OC)cc2OC)/C1=C(/O)OC (stereo not shown) | 3.32 |
| Cc1nnc2c3nnc(C)n3c3ccccc3n12 | 5.9 |
| Clc1ccc(CNc2ccc(CNc3nc[nH]n3)cc2)c(Cl)c1 | 3.49 |
| C(#Cc1ccccc1)CN1CCN(C(c2ccccc2)c2ccccc2)CC1 | -0.239 |
| CCOc1ccc(-c2c(C)nn3c(-c4ccccc4)c(C(=O)NC(C)CC)cnc23)cc1OCC (stereo not shown) | 1.63 |
| CCOC(=O)c1c(CN(C)C)n(-c2ccccc2)c2cc(Br)c(OC)cc12 | 1.76 |

| Compound | % Inhibition @ 10 uM [%] |
| --- | --- |
| Cc1ccc2oc(C(F)(F)F)cc(=O)c2c1 | -0.233 |
| Cc1ccc(CNS(=O)(=O)c2c(C)nc3sccn3c2=O)cc1 | -0.0709 |
| O=C1CCSc2c1cccc2C(=O)Nc1cccnc1Cl | -5.05 |
| c1ccc2c(c1)nc(NCCN1CCOCC1)c1nncn12 | -4.21 |
| CS(=O)(=O)c1nc(S(=O)(=O)c2ccc(Cl)cc2)c(NCc2cccnc2)s1 | -4.04 |
| CN(C)CCN(C)Cc1ccc(F)c(Br)c1 | -0.833 |
| Cc1ccc(NC(=O)c2ccccc2C)cc1N | 9.41 |
| COc1cc(OC)c2c(c1)ncc1c(C)nn(-c3ccccc3)c12 | 1.85 |
| COc1ccc(CCN2C(=O)CNCC2=O)cc1OC | 1.42 |
| O=C(N/C(=C\c1ccco1)C(=O)N1CCN(c2ccccn2)CC1)c1ccccc1 | -0.996 |
| Cc1sc(NC(=O)COc2ccc3ccccc3c2Br)c(C(N)=O)c1C | -1.06 |
| COc1ccc(Cn2c(=O)c3ccccc3n3c(-c4cccs4)nnc23)cc1 | -1.72 |
| CC(C)C1CC(c2csc(N)n2)CCO1 (stereo not shown) | 4.54 |
| CCc1nnc(NS(=O)(=O)c2ccc(NC(=O)c3ccc([N+](=O)[O-])cc3)cc2)s1 | 2.86 |
| CC12CN3CC(C)(CN(C1)C3c1c[nH]c3ccccc13)C2O (stereo not shown) | -1.55 |
| COc1ccccc1C1C2=C(O)CCCC2=Nc2nnnn21 (stereo not shown) | -3.53 |
| COc1ccc(C(=O)Nc2sc(C)c(C)c2C(N)=O)cc1 | -0.088 |
| Cc1ccc(CN(Cc2ccco2)C(=O)c2ccccc2C)cc1 | 1.25 |
| CCOc1ccc(C(=O)Nc2c3c(nn2-c2cccc(C)c2C)CS(=O)(=O)C3)cc1OCC | -1.28 |
| CC(=O)c1cc(-c2ccc(F)cc2)n(CCC(=O)NCc2ccccc2)c1C | 6.11 |
| COc1ccc(CN2CCN(C(=O)Cc3ccccc3)CC2)cc1OC | 19.8 |
| COc1ccc(CN(C)CCc2ccccn2)cc1 | 0.147 |

| Compound | % Inhibition @ 10 uM [%] |
| --- | --- |
| COc1ccc(C2NC(=O)Cc3cc(OC)c(OC)cc32)cc1OC (stereo not shown) | -3.44 |
| O=C1CC(N2CCN(C/C=C/c3ccccc3)CC2)C(=O)N1c1ccc(Cl)cc1 (stereo not shown) | 6.33 |
| COc1cccc(CNc2nc(SC)ncc2CO)c1 | -3.25 |
| CC(C)(O)C(=O)/C=C/c1ccccc1Cl | 5.29 |
| O=C(O)CCC(=O)Nc1ccc(N2CCN(CCO)CC2)cc1 | 3.91 |
| Cc1nn(C)c(C(=O)Nc2ccn(Cc3ccccc3F)n2)c1Br | 0.709 |
| Cc1nnc2c(NC(C)c3ccccc3)nc3ccc(C(=O)c4ccccc4)cc3n12 (stereo not shown) | 5.84 |
| COc1ccc(CCCC(=O)Nc2ccc(F)cc2)cc1 | -6.65 |
| O=C(CCN1C(=O)c2ccccc2C1=O)Nc1ccccc1C(=O)NC1CCCCCC1 | 1.08 |
| O=S(=O)(c1ccc(Br)c2nsnc12)N1CCC(Cc2ccccc2)CC1 | 15.4 |
| COc1ccc(Br)cc1CN1C(=O)c2ccccc2C1C(=O)NCC1CCCO1 (stereo not shown) | -3.21 |
| CCC(=O)N1c2ccccc2C(Nc2ccccc2)CC1C (stereo not shown) | -3.41 |
| CCc1cc(C(=O)Cc2nc3ccccc3s2)c(O)cc1O | -4.08 |
| COc1cc(C2c3c(oc4cc(C)c(C)cc4c3=O)C(=O)N2c2ccccn2)cc(OC)c1OC (stereo not shown) | -3.13 |
| Cc1c(CNC2CCCc3ccccc32)c(C(=O)O)c(C)n1Cc1ccccc1F (stereo not shown) | -0.23 |
| COc1cc(CNCCCSc2nnnn2C)cc(OC)c1OC | -2.88 |
| CCCN1C(=O)c2[nH]nc(-c3ccc(OC)cc3)c2C1c1cccnc1 (stereo not shown) | -4.67 |
| Cc1ccc2c(=O)cc(C(=O)N(Cc3ccc(Cl)cc3)C3CCS(=O)(=O)C3)oc2c1 (stereo not shown) | 0.248 |
| CCCOc1ccc(-c2nonc2NC(=O)C(C)C)cc1OCCC | 1.9 |
| Nc1c(S(=O)(=O)c2ccccc2)c2nc3ccccc3nc2n1CCO | -8.11 |
